Data reported in PubChem BioAssay (Tox21).
This list was built around the results that the source calls inconclusive (neither active nor inactive); the mix of calls is not that of the screen. No potency is given beside an inconclusive call; the fits are too rough. Activity calls are given as the source filed them. Calls come from the whole dose curve; as a rule, active = well fitted cell-killing curve with a large enough effect in the repeat runs; inconclusive = weak or mixed curves, or effect the other way; inactive = flat fitted curve, though single readings scatter.
Potency is the fitted concentration of half-maximal effect; tags give direction and shape of the fitted curve.

Assay: qHTS assay to identify small molecule agonists of the androgen receptor (AR) signaling pathway in the presence of an antagonist - cell viability counter screen (AID 1259379); note: nearly all actives have a fitted effect of over 25% in size
Details: MDA-kb2 viability, CellTiter-Fluor, 16 h; series mostly up to 92.4 µM
Outline: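 Each compound was tested at 15 concentrations on MDA-kb2 cells in the presence of 3.0uM nilutamide. Viability was measured by CellTiter-Fluor fluorescence after a 16 hr incubation at 37C in a CO2-free atmosphere.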
In the case of C[C@H]1[C@H](c2ccc(Cl)cc2)SC(=O)N1C(=O)NC1CCCCC1, the Potency was inconclusive [cytotoxic, single point].
For Nc1ccc(Cl)cc1C(=O)c1ccccc1, the Potency was inconclusive [cytotoxic, partial curve].
With CS/C(C)=N/OC(=O)N(C)SN(C)C(=O)O/N=C(\C)SC the Potency was inconclusive [cytotoxic, partial curve, poor fit].
With CC(C)(C)C(O)/C(=C\c1ccc(Cl)cc1Cl)n1cncn1 (stereo not drawn) the Potency was inconclusive [cytotoxic, partial curve].
With Cc1ccc(N)c(C)c1 the Potency was “inactive”.

Assay: qHTS assay to identify small molecule agonists of the estrogen receptor beta (ER-beta) signaling pathway - cell viability counter screen (AID 1259380); note: nearly all actives have a fitted effect of over 30% in size
Details: ER-beta-bla HEK293T viability, CellTiter-Glo luminescence, 16 h; series mostly up to 92.4 µM
Outline: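 Compounds dissolved in DMSO were pin-transferred onto ER-beta-UAS-bla HEK293T cells that had settled 6 hr, and exposure ran 16 hr at 37C. Following the reporter read, CellTiter-Glo luminescence after 30 min at room temperature indicated cytotoxicity.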
With N#CC(CCc1ccc(Cl)cc1)(Cn1cncn1)c1ccccc1 (stereo not drawn) the Potency was active: 68.6 µM.
For C[C@H]1[C@H](c2ccc(Cl)cc2)SC(=O)N1C(=O)NC1CCCCC1, the Potency was inconclusive [cytotoxic, single point].
In the case of CCOP(=O)(OCC)SCCSCC, the Potency was “inactive”.
In the case of Nc1ccc(Cl)cc1C(=O)c1ccccc1, the Potency was inconclusive [cytotoxic, partial curve].
For CCCCC(CC)COP(=O)(Oc1ccccc1)Oc1ccccc1 (stereo not drawn), the Potency was inconclusive [cytotoxic, partial curve].
With CO/C=C(/C(=O)OC)c1ccccc1COc1cccc(C(F)(F)F)n1 the Potency was active: 4.85 µM.
With CC(C)N(C(=O)COc1nnc(C(F)(F)F)s1)c1ccc(F)cc1 the Potency was inconclusive [cytotoxic, single point].
In the case of COc1cc(OC)nc(NC(=O)NS(=O)(=O)c2ncccc2OCC(F)(F)F)n1, the Potency was inconclusive [cytotoxic, partial curve, poor fit].
